Laboratory results as given in PubChem BioAssay AID651820 (National Center for Advancing Translational Sciences (NCATS), 2012).
The campaign covered roughly 340,000 compounds. About 12,000 (3.5%) were called active. Inconclusive means that the source gave no clear call. Such entries were picked first, then a sample of the others. Calls follow the shape of the dose curve; as a rule, active = well fitted inhibition curve with a large enough effect; inconclusive = small, poorly fitted or top-dose-only effect, or another doubt; inactive = no such curve, though single readings can be large or run the other way. Potencies of inconclusive entries are left out as doubtful fits.

experiment: qHTS Assay for Inhibitors of Hepatitis C Virus (HCV); details: Huh7.5.1 HCVcc-Cre (HCVcc is cell-culture hepatitis C virus) infection, luciferase reporter, 44 h; activity change, negative = inhibition: at 41.8 µM (top of the series) unless noted
Summary of the method: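 Antiviral activity was scored by luciferase reporter output from cells infected with HCVcc-Cre (~0.5 moi) in presence of compound, 44 h infection period, cells seeded 1,000/well 4 h prior.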
% is scaled to controls: 0 for no effect and ±100 for the full control effect; potency is read from the fitted curve at half-maximal effect; tags tell the direction and shape of the fitted curve.

SMILES	Potency	activity change, negative = inhibition
COc1ccc2[nH]c(C(=O)N/N=C/c3ccccc3OC)cc2c1	inactive	
N=c1ccn(Cc2ccc([N+](=O)[O-])cc2)cc1	inconclusive [inhibitor, single point]	
COc1ccc(C2=CSC3=NCCN23)cc1Br		inconclusive: -32.4% [inhibitor]
CCCCn1nc(C(=O)N2CCN(S(=O)(=O)c3ccccc3)CC2)c2ccccc2c1=O	inconclusive [inhibitor, single point]	
COc1cc2c(cc1OC)C(c1cccc([N+](=O)[O-])c1)N(C(=O)c1ccccc1C(=O)O)CC2 (stereo unspecified)	inactive	
CSC1SCC2C(=O)N(C)C(C(C)C)C(=O)OCC(NC(=O)c3cnc4ccccc4n3)C(=O)NC(C)C(=O)N(C)C1C(=O)N(C)C(C(C)C)C(=O)OCC(NC(=O)c1cnc3ccccc3n1)C(=O)NC(C)C(=O)N2C (stereo unspecified)	inconclusive [inhibitor, full curve, poor fit]	
COc1ccc(NC(=O)CN2CCN(S(=O)(=O)N3CCCCCC3)CC2)cc1	inactive	
Cc1ccc(NC(=O)Nc2nnc(-c3ccncc3)s2)cc1	inconclusive [inhibitor, single point]	
CCOC(=O)c1c(N2C(=O)Nc3ccccc3N2O)sc2c1CCCC2	inactive	
CCNc1ccc(C(=O)OCC)cc1NC(=O)c1cc(S(=O)(=O)N2CCOCC2)ccc1C	inconclusive [inhibitor, partial curve]	
CN(c1ccccc1)S(=O)(=O)c1ccc(Cl)c(C(=O)NC2=NCCS2)c1	inconclusive [inhibitor, single point]	
Cc1ccc(-n2cc(CN3CCNC(=O)CC3)c(-c3cccc(C)c3)n2)cc1	inactive	
CCOc1ccc(CN2CCN(Cc3nc(C(C)C)cs3)CC2CCO)cc1 (stereo unspecified)	inconclusive [inhibitor, single point]	
CCS(=O)(=O)c1ccc2oc(Nc3cc(Cl)ccc3OC)nc2c1	inconclusive [inhibitor, full curve, poor fit]	
Oc1ccc(-c2nc(-c3ccc(F)cc3)c(-c3ccncc3)[nH]2)cc1	inconclusive [inhibitor, partial curve]	
CC1CCCC(C)N1CC(O)COc1ccc(Cl)cc1 (stereo unspecified)	inconclusive [inhibitor, single point]	
CCOC(=O)c1c(C)[nH]c(C(=O)OCC(=O)NC2(C#N)CCCCC2)c1C	inconclusive [inhibitor, partial curve]	
CN(C(=O)COC(=O)c1ccc(Cl)c(S(=O)(=O)N2CCCCCC2)c1)C1CCS(=O)(=O)C1 (stereo unspecified)	inconclusive [inhibitor, partial curve]	
Cc1ccccc1NC(=O)Nc1ccc2c(c1)CCC2	inactive	
CCn1nnnc1SCC(=O)N1CCCc2ccccc21	inactive	
COC1C=COC2(C)Oc3c(C)c(O)c4c(O)c(c(CN5CCN(C)CC5)c(O)c4c3C2=O)NC(=O)C(C)=CC=CC(C)C(O)C(C)C(O)C(C)C(OC(C)=O)C1C (stereo unspecified)	inactive	
COc1cc(/C=N/N(C)c2ccccc2)cc(Cl)c1O	inconclusive [inhibitor, partial curve]	
O=C(CN1CCN(c2ccccc2)CC1)Nc1nccs1	inactive	

SMILES	Potency	activity change, negative = inhibition
N/C(=N\OC(=O)c1cccc([N+](=O)[O-])c1)c1ccccn1	inconclusive [inhibitor, single point]	
CCc1ccc(C(=O)Nc2cccnc2Oc2ccc(Cl)cc2)cc1	inconclusive [inhibitor, single point]	
COc1cc(/C=C2/NC(=O)N(c3cccc(Cl)c3)C2=O)ccc1O	inconclusive [inhibitor, full curve]	
Nc1nc(NCCN2CCOCC2)nc(NCc2ccccc2)c1[N+](=O)[O-]	inconclusive [inhibitor, single point]	
Cc1ccsc1C(=O)NCCc1ccco1	inactive	
CNC(=S)NNC(=O)c1ccc2c(c1)OCO2	inactive	
Cc1ccc(/C=N/NC(=O)CSc2nc3ccccc3c(=O)n2-c2ccccc2C)s1	inconclusive [inhibitor, partial curve]	
CCOc1ccccc1NC(=O)c1ccc(NC(=O)c2ccco2)cc1	active: 10 µM	
O=C(N/N=C/c1cccnc1)c1cc(O)c(O)c(O)c1	inactive	
CN(C(=O)c1cccc(NC(=O)Cc2ccc(NC(=O)C3CCCN(C(=O)C4CC4)C3)cc2)c1)C1CCCC1 (stereo unspecified)	inconclusive [inhibitor, single point]	
COC(C(=O)N/N=C(\C)c1ccc(O)cc1)c1ccccc1 (stereo unspecified)	inactive	
CC12CNCC(C)(CN(C(c3ccccc3)c3ccccc3)C1)C2	inconclusive [inhibitor, single point]	
Cc1cc(C)cc(OCC(=O)Nc2cccc(S(=O)(=O)NC3=NCCC3)c2)c1	inconclusive [inhibitor, partial curve]	
Cc1[nH]c2ccccc2c1N=Nc1cccc(C(=O)O)c1	inactive	
Cc1nc2nc(SCc3ccccc3)nn2c(C)c1C	inactive	
CCN(CC)CCCNc1nc2cc(OC)c(OC)cc2c2nc(-c3ccccc3)nn12	inconclusive [inhibitor, partial curve]	
COc1cc(/C=N/n2c(-c3n[nH]c4c3CCC4)n[nH]c2=S)cc(OC)c1O	inactive	
Cc1ccc(SCc2nc3ncccn3c2Br)cc1	inactive	
CCCC(=O)Nc1cc2c(cc1C(=O)c1ccccc1)OCCO2	inconclusive [inhibitor, single point]	
Cc1ccc2nc(C)cc(Nc3ccc4c(c3)OCCO4)c2c1	inconclusive [inhibitor, partial curve]	
COc1ccc(OC)c(-c2csc(NC(=O)CSc3ccc(Br)cc3)n2)c1	inconclusive [inhibitor, single point]	
O=c1[nH]c2cc([N+](=O)[O-])ccc2c2ccccc12	inactive	
CC(C)Cn1c(N)c(C(=O)COC(=O)CCNS(=O)(=O)c2ccccc2)c(=O)n(C)c1=O	inconclusive [inhibitor, single point]	
